The full ranking holds about 33,000 sequences; the median of “E-score (-0.5 to 0.5)” is about -0.053, and the highest 2% start at about 0.37. This is one part of the list.
biological target: Hap1 (UniProt P0CE41); assay: PBM E-score (8-mer binding enrichment) (E-score (-0.5 to 0.5)); higher = stronger / more preferred TF binding; most listed sequences are background and not binding sites; settings: protein concentration: 200 nM; construct: GST-DNA-binding domain
How it was run: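 For each ungapped eight-base word taken together with its reverse complement, the Universal PBM Analysis Suite assigned an E-score. Binding data came from GST-tagged yeast transcription factors, applied at about 100-200 nM, on universal all-10-mer Agilent arrays made double-stranded by primer extension. Fluorescent anti-GST marked bound protein, and scans were normalised with masliner.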

UniProt P0CE41, sequence (P0CE41 whole entry, the tested form may be a part): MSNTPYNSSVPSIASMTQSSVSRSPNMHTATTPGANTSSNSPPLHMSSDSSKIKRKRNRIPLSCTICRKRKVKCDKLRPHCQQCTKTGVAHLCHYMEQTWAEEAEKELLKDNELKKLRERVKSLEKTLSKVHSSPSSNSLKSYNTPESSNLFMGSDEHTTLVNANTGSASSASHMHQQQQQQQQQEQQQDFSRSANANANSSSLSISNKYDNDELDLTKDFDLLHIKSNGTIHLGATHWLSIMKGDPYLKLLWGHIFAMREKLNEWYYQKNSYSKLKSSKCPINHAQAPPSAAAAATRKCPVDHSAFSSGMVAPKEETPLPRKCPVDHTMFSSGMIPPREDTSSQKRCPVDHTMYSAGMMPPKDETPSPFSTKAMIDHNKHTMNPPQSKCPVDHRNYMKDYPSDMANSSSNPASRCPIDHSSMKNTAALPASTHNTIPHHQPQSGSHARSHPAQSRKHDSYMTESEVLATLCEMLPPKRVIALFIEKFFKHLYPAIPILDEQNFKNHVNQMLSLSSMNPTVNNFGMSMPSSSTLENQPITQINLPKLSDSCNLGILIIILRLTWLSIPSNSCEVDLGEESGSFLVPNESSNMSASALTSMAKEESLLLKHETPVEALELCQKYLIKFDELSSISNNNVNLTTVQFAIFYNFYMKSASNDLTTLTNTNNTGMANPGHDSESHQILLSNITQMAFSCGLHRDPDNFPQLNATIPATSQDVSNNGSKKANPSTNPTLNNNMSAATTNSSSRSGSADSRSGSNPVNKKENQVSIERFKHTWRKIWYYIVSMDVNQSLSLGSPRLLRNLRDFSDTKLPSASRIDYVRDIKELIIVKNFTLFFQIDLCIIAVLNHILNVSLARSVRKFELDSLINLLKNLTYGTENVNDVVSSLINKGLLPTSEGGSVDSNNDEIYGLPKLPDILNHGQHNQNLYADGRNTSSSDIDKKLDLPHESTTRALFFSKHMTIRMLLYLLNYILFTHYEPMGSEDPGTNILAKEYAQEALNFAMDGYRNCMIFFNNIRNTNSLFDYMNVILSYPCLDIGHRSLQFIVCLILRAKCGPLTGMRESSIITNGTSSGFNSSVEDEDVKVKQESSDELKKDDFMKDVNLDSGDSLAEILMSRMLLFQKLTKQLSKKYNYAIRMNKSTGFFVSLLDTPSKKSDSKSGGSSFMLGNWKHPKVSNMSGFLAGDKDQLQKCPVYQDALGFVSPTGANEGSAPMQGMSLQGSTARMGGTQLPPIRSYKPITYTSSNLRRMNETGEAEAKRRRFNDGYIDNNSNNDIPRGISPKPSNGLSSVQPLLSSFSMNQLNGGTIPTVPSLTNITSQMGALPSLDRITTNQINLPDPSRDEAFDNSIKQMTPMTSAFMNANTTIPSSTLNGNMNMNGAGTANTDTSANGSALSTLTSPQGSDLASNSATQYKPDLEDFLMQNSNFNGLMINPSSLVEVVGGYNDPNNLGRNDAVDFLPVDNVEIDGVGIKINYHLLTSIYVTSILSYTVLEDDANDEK

Row | Sequence | PBM E-score
1 | AGTGGAGA | -0.0684
2 | ATAGTGGC | -0.0684
3 | ATAGGGGG | -0.116
4 | AGCCTTAG | -0.249
5 | ACATTATG | -0.0456
6 | AGGTGTGC | -0.185
7 | GATTGAAA | 0.136
8 | CCCGTGCA | 0.0668
9 | CCTCAGAG | -0.261
10 | CTATATGC | -0.0879
11 | CGACGCTA | -0.0783
12 | AATTTGAA | 0.235
13 | AGCCGAGG | 0.294
14 | GATCTAGC | -0.0586
15 | CCGATAAG | 0.431
16 | ACATGTTA | -0.0591
17 | CTAGTATC | 0.0581
18 | AACATACT | -0.118
19 | TAACACCA | -0.158
20 | CATAAGCA | -0.166
21 | GCTTATAA | 0.0766
22 | ACCGCAGA | 0.00744

Row | Sequence | PBM E-score
23 | TCTCGAGA | 0.0304
24 | AGGTCTAT | -0.236
25 | AGATCAAT | -0.0196
26 | CTTAACGC | 0.0373
27 | ACCCCAGG | -0.274
28 | CTGGAACC | -0.168
29 | AACCAGCT | -0.24
30 | AGTCAGAT | -0.212
31 | CGTTGACC | -0.0894
32 | GAAGCATC | -0.0716
33 | CCAATGGA | -0.0152
34 | CAGCTGGC | 0.0946
35 | ACGACGAC | -0.0734
36 | GAACATCA | -0.0898
37 | GCTCGTCC | 0.004
38 | ATGTGTAA | -0.115
39 | CAGTGCGC | -0.0688
40 | AGGCTATG | -0.266
41 | CGTGATTA | 0.016
42 | GAGTTAAC | 0.118
43 | CCAGGCGC | -0.0378
44 | CAACGCCA | -0.154

Row | Sequence | PBM E-score
45 | TTCCCAAA | -0.139
46 | CATGCTGA | -0.235
47 | ATCCGGCC | 0.412
48 | CTTGACAC | -0.266
49 | GCCCTATA | -0.022
50 | TAAAAAGA | -0.0263
51 | ACGTGCGC | -0.0439
52 | AAGGAACG | -0.0459
53 | ATCATACG | 0.0229
54 | AGCCGCCG | 0.182
55 | AACACCTG | -0.0827
56 | ATACTGAA | -0.176
57 | ATACGAGC | -0.0187
58 | CATACTGG | 0.104
59 | GTTCTGTA | -0.174
60 | ACTTCAGG | -0.00179
61 | AGAACATA | 0.234
62 | CAGGCTCG | 0.0756
63 | TCACGTGA | -0.0813
64 | GTCCCAAA | -0.13
65 | CTAACTAC | -0.0641
66 | GCGACTCA | -0.0964

Row | Sequence | PBM E-score
67 | GGAACAAA | 0.0674
68 | GAAAATTA | 0.025
69 | CATTTGAC | -0.0393
70 | CCGACGGA | 0.386
71 | GTAGGACA | 0.0423
72 | CTTGAGCA | -0.343
73 | ACGGCAAT | 0.254
74 | CGGAATCC | 0.313
75 | CTCGTGCA | -0.208
76 | AATCCATA | 0.00302
77 | CGCGATAC | 0.17
78 | CCACGTCG | -0.0481
79 | AGAATCAC | 0.0502
80 | GCTTACTA | -0.243
81 | ACAACGGG | 0.222
82 | CGACTAGA | -0.154
83 | CCAGGCTA | -0.186
84 | ACTCACCG | 0.151
85 | ACAAGAAA | 0.00518
86 | ACCAGGAC | -0.0159

Source: the supplement of paper PMC3334620
